Measured values from paper PMC12136788.
Some of the results follow.

T1: UNK ZnF1-3 (human, UniProt Q9C0B0 31-174)
T1 sequence: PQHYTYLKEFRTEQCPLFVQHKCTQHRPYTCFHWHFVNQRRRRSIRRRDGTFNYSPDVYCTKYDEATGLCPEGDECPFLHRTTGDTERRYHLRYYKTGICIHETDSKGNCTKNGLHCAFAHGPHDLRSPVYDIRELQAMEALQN

B1: chr12:123346578:123346579:+_ENSG00000130787_ENST00000253083|hu_mus|FALSE|FALSE (ssRNA)
RNA: GGGAGUUCUACAGUCCGACGAUCGUGCUGACUAAACUUACGAAGAAAGAAAUACCUCGCAGCAUUCAGACUAUCUCUGAUGUCCGCUGCAGAUUUGUGGCUCAGGCCUGCUGGGUCCCAGCUGCUCGAGGCAGUUCCUACUUACAACAGAGGAUUGAGCAUCA
B2: 29885535_29885655_1869_CDS_ENSMUSG00000074909_ENSMUST00000099525|mouse|control|control (ssRNA)
RNA: GGGAGUUCUACAGUCCGACGAUCAAUAACCAGUGGGAGAUAUUGCUCAAAGUCUUUGCCAAGGAUUUUACACAUUCUAGCCCAGGCUGAAACCAUGUAAGAAGUCUGAGGGUCAUCAUCUUCCAUGUUAUUUAAGUCUGAUUGCAACAGAGGAUUGAGCAUCA
B3: chr14:89307221:89307222:+_ENSG00000165533_ENST00000346301|hu_mus|hu_hu_hu_mus_False|28_98 (ssRNA)
RNA: GGGAGUUCUACAGUCCGACGAUCUCCUGUUUGGUUAGUUCCAGGGAGCUUCAAAGAUGUGCCAGGGCGUGGGACCUGAGCAAUAGCAUUUUCAUCCAGGAUCAUUUCUGCAAUUCCUUCCUGGUCCACAUCAAUUUCAUCUAUCAACAGAGGAUUGAGCAUCA
B4: chr8:97196980:97196981:+_ENSMUSG00000031776_ENSMUST00000034228|mus_hu|motif|central (ssRNA)
RNA: GGGAGUUCUACAGUCCGACGAUCCCUAUUGGGCUGGUGACAUCCAGAAUGAUCCCAUUCAUUGGCUGGAGGUAGGACCGGGUGCCGCAGAUUGUUCUGGGAAGCUGGCAGAGAAGAUGAUUUGCACAAUGAAGUCACCACUAACAACAGAGGAUUGAGCAUCA
B5: chr3:184040909:184040910:+_ENSG00000114867_ENST00000411531|hu_mus|FALSE|FALSE (ssRNA)
RNA: GGGAGUUCUACAGUCCGACGAUCGCCAAGAUUGGCAAAAGAUGGAGUGAAAUCUGGGCCACAGUUUAUGCCAGGUAGUCUGGAGGGAUCCAGUUGCCGAAGUGGUGUUUUAUUGGCCUUGUCCAGCACCACAUCAGUGAUAUGCAACAGAGGAUUGAGCAUCA
B6: chr7:135612270:135612271:-_ENSG00000105887_ENST00000393085|hu_mus|hu_hu_hu_mus_False|8_28 (ssRNA)
RNA: GGGAGUUCUACAGUCCGACGAUCGUUUUUUUCUGAGAUGUUAAAUAGUACUUCAGUGGAAAACAAAACUUAACCUUUUAUUAAUGCGUGUUGUACCAAAAGCAGACCAUGGUUUUACAUUUAUUCACUCAAAAUAUCAUUAAGCAACAGAGGAUUGAGCAUCA
B7: chr13:33351070:33351071:+_ENSG00000083642_ENST00000315596|hu_hu|motif|central (ssRNA)
RNA: GGGAGUUCUACAGUCCGACGAUCUGAUCCCACCUGAGCUGCUUUGAUAUAUGACAGCCUCUCAUAAUUACUGGUGUCACGGUUGUUGUAAAUGAAGAAUAGUUGAAUAUGGAGAGAUUAAGACACAAUUCAAAACACUUUUUACAACAGAGGAUUGAGCAUCA
B8: chr7:34927866:34927867:-_ENSMUSG00000052997_ENSMUST00000102746|mus_hu|FALSE|FALSE (ssRNA)
RNA: GGGAGUUCUACAGUCCGACGAUCGCUUUUGGCAGCAUCUUCAGCUUGUUUGGGCCCCACUUUUUCCGGGGCAUCACCAACAACUUCAAAUUCAACGUCCUUUCCUAGGUCUUCACUAUGAAGGAUGUUGAUCAAUAAAGUAUACAACAGAGGAUUGAGCAUCA
B9: chr6:110421769:110421770:-_ENSG00000112290_ENST00000392587|hu_hu|FALSE|FALSE (ssRNA)
RNA: GGGAGUUCUACAGUCCGACGAUCUUUUUCUUACUCCAACCAAUCUACUUCAUCAAAUUCUGAAUCAUCUUCCGAAUCACUAUAUUCAACAGCAAUACGGCGAGACAGGAUGGUGGCAACAUCGUUUUCAAUGCGUUCAUGCUUCAACAGAGGAUUGAGCAUCA
B10: 87525337_87525457_254_CDS_ENSG00000140948_ENST00000268616|human|control|control (ssRNA)
RNA: GGGAGUUCUACAGUCCGACGAUCGCCCCCGCCGCCGUUCAGGCUGCUCUGGAUCUGCGUGAGCUCCUGGCGCAGCACCUGCUUCUGGUGGAAGCUGAAGGCCGGGUGGUUGGAGGCCAUGGUGAACAGCAGCAGGAACUCAUCCAACAGAGGAUUGAGCAUCA
B11: chr2:32640565:32640566:+_ENSG00000115760_ENST00000421745|hu_hu|motif|central (ssRNA)
RNA: GGGAGUUCUACAGUCCGACGAUCGCAUGUCCGCAGUCCUACCAACAAAUGAAUUCCGUCAGCACAAGGAGUUAUUGAGUCGGUACAAAGAUUCUCCUCCUCUGCAAACUUUGGCAGCCUCAAGCACUGAACCAAAGUCCCAGGCAACAGAGGAUUGAGCAUCA
B12: 45157708_45158563_316_5pUTR_ENSMUSG00000022664_ENSMUST00000023344|mouse|control|control (ssRNA)
RNA: GGGAGUUCUACAGUCCGACGAUCUUUUUAAUUGCCUUAAGAAGAUCACUUUCAUGAGCAGCCCCGUCGGCAGACCUCAGUCGCUCAGGGAAGGUUCUAGUGCAAGAACGGACAUCAUAGAGCCGACAUAGUGACUGCCUAAGUCAACAGAGGAUUGAGCAUCA
B13: chr6:41757443:41757444:+_ENSG00000214736_ENST00000398881|hu_mus|hu_hu_hu_mus_False|38_108 (ssRNA)
RNA: GGGAGUUCUACAGUCCGACGAUCGAACUGUCUGCUGGCAACAUCUCAGCCGACACUGGGGGAUGGGGGGGCAGUGGGGGGGGGUUCAGGCAAGGAGAAGAAAAGUGCUUCAGCUGCCACUCAGGUAGGAUCUUGUGGUCACAGCAACAGAGGAUUGAGCAUCA
B14: 30679904_30680152_861_3pUTR_ENSG00000156860_ENST00000287468|human|control|control (ssRNA)
RNA: GGGAGUUCUACAGUCCGACGAUCGGGAGGCGAAGGCUGGUGGGGCCCCUGGGCUUUCUUUCUGGGCAAAGACGGCGCCGGAGUUGAAUGUGGGGCUGCCCAGGCCUCCAAAGGCCCCGUUGGAGAGGGCAGCCAAAGAGGCGACAACAGAGGAUUGAGCAUCA

Each binder was assayed against T1, UNK ZnF1-3 (assay: nsRBNS (natural sequence RNA bind-n-seq); RBNS binding buffer (assumed for nsRBNS): 25 mM Tris pH 7.5, 150 mM KCl, 3 mM MgCl2, 0.01% Triton X-100, 500 ug/ml BSA, 20 U/ml SUPERase-In, 4 C; UNK is unkempt and MSI1 is Musashi-1; names of the RNAs are library labels; protein concentration not given here; high values mean tight binding).

| Binder | binding signal [enrichment R] |
| --- | --- |
| B1 | 0.667 |
| B2 | 1.09 |
| B3 | 0.669 |
| B4 | 1.31 |
| B5 | 0.572 |
| B6 | 0.944 |
| B7 | 2.19 |
| B8 | 0.719 |
| B9 | 0.909 |
| B10 | 0.566 |
| B11 | 0.993 |
| B12 | 0.548 |
| B13 | 1.6 |
| B14 | 1.05 |
